According to the supplement of paper PMC10126150:
Sequences with one replicate were seen in a single cluster, so their values are uncertain.

Tested on: ATP
Test: switch fluorescence ratio, 500 uM ATP over buffer (Cy3 cluster intensity, sum of 5 cycles each) (fold (ratio)); higher = stronger signal-on switching upon ATP binding; sequences stand for … in TCGTCGGCAGCGTCAGATGTGTATAAGAGACAGTTTTTTTTTTTTTTTTTTTTTTTTT…TC
Settings: aptamer strand: ATP DNA aptamer (quencher-CACCTGGGGGAGTATTGCGGAGGAAGG + anchor), 100 nM annealed; ATP concentration: 500 uM; one replicate
In short: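 Between each of five buffer/ATP cycles, the flow-cell was stripped with NaOH and re-annealed. Each cycle imaged Cy3-labelled switching-strand clusters, annealed to 100 nM quencher-labelled ATP aptamer on a modified Illumina MiSeq flow-cell, first in selection buffer and then after 15 min with 500 uM ATP at 22 °C. The fluorescence ratio is summed target-cycle over summed buffer-cycle Cy3 intensity per cluster, averaged per switch-domain sequence, with clusters outside 100-1000 RFU excluded.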
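Also: ATP exposure 15 min at 22 °C before imaging.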

Sequence	switch fluorescence ratio
ACCTTTATAC	1.52
AATCACCGCT	1.06
ATATCTACTT	1.06
CTCATGGGGG	1.02
TATGGGAAGG	1.01
GGGTCGCACC	1.03
GTTCCAGCAA	2.93
GCTAGTAGAA	1.01
CGTATGTCGC	1.05
TCAACCCATA	0.993
GATTGCGACT	1.04
GTCGTAATTT	1
CATTCCCAAC	1.22
GCAAGTAAGG	1.29
ACGTTATATT	1.6
TTAGGTGATA	1.01
GATAGAATGG	0.948
AGCTGTAA	1.01
CGGCAAAAAG	1.11
ATAATGTAAC	0.997
TACTGCGGA	1.03
ATTCCGATAT	1.08
AAAGTAAAAT	1.01
GTGTGGGGAA	0.979
ACGGGGCTAG	1.02
ATCGTCTTTC	1.03

Sequence	switch fluorescence ratio
ACGCCAACCC	1.46
GTTATGTGAA	1.01
CCAGAAACCA	1.07
AGCGAGGTGT	1.04
TAATAGCTGC	1.02
GGTAGGTAAA	0.986
ACCTGATCGG	1.02
CTCGCTCTAA	1.18
TGGCGGCATT	1.01
CGATCGCTCT	1.3
TTCCGGCTCG	0.956
GACACATACA	1.48
TCAGCCGTAC	1.14
CCTTGCGTCT	1.17
GGTAGTGTAG	1
GGATGAGGAC	1.01
TCTGGATGAA	1.01
GAGCTTGTAC	1.32
GGCGTATATT	1
ATAATGGTAG	0.993
TAATATGC	0.967
ATTAGATGGG	0.981
AGAGAACCGT	1.01
AATAGGCCCT	1.06
TCGGGGATGG	1.02
CGGAAGAGGG	1.01

Sequence	switch fluorescence ratio
GAGGACAGAC	1.1
GCATTTGACT	1.04
GTTGGATCCT	1.04
AGTTTCAACA	1.03
CAGGCCCCCG	1.05
AGAAATCCCT	1.04
TCTAATCAAC	0.998
GAGGG	1.04
GATAAGGCTT	0.994
ACGATACTAA	1.23
GACTATTTCT	1
GGTCCTTACG	1.02
CTAATCTCTT	0.99
CGCCTGGGTC	1
AACCGAGGTA	0.999
ACATTAGCGG	1.02
CTGTCCTAAA	0.998
GTGTTTGCGT	0.993
AGGGAGAGGA	1.01
AGGCTAGGCG	0.991
AAGAATTGTT	0.956
TTTTCGGGCC	1.02
GAAACATGGT	1.04
TTATAAAGCA	1.02
GCTGCGCTCG	1.02
GTATAACTAG	1.03

Sequence	switch fluorescence ratio
TGTGTTTGTG	0.993
GCTATTAACT	1
TTTAGTGACT	1.04
GCGGGCCAAA	1.24
ATTAGCAGGA	0.978
GGTATGTCTT	0.978
TATGGGCACC	1.02
TCAAGAGTAT	1
CAGTGGCTCT	1.02
GAATACAGGC	1.05
TGGGGGATCG	1.1
AGGTACACCC	1.07
TACTTCCAAC	1.24
TATGCCATTG	0.997
ACCGATGTAG	1.03
CCGGTTTAGC	1.15
GCACTAAGAG	0.994
ATAAATAGAG	0.971
CTCCGAGGGT	1.44
GATTTTAGGG	0.96
AGACACCGGG	0.925
GTAAGCCTGC	1.03
GTTTTAACCG	1.01
TGGGTATCTG	0.993
TCTCCCCATT	1.42
TGGCGCTG	0.994

Sequence	switch fluorescence ratio
CGCACCGCGT	0.963
GTCAATGT	1.03
GGGGCAAAG	1.01
AGCACTTCTA	1.02
ACTATCGGGG	1.01
CTATTGCTAC	1.71
GTTCTGTGAT	1.03
TTAGCAACTA	1.33
CTTGGAGCCG	0.996
CGGAATTTTA	1.05
GAGGGTAAGG	0.94
TAGCAAAGAC	2.66
TTAGGCCAAG	1
CAGATAACGG	1.02
GACGATTCGA	1.03
TTCTGCTGA	1.02
CCTTTAGAGA	0.989
GAAGAAGGAT	0.98
TCATGGGGCA	1.07
AGTCAACAAC	0.973
GAGGAACTTG	0.98
TCGATGATGC	1.16
TCAATGATCG	0.912
CACTACGATG	1.03
TCGGGCTGCA	0.94
GACGACGGTA	1.62

Sequence	switch fluorescence ratio
CTCGAACGAG	1
GCGTCCCTTC	0.961
GGGAGGGGAT	1.05
AGCATCATT	0.985
GAGGCGCG	1.04
GCAAAATTCC	1.1
TTAGCTGGGA	0.993
CGTTCTTTCC	0.965
CTTTTAAACA	1.04
TGACCTTAAG	0.986
GATCGCAGTC	2.85
TCTTACGGTT	0.964
CTGTCTCCG	1.19
CAAGAAGGGA	1.01
CTCTAATGT	1
GATGTTTTAG	0.969
AAGAGAGGTA	0.945
ATCGAAGCAT	1.23
AGATACCATT	1.02
AAGAACCGGA	1.44
CTCGCATTTA	1.53
TTATCTCCGT	1.21
GCGATAGACC	1.13
TATGTGCGGG	1.02
TGTTGGCGTC	0.943
CGTTCGTCAC	1.21

Sequence	switch fluorescence ratio
TGCATTTATA	0.998
TTTGTTCCCT	1.02
ACTACGTTAT	1.23
TGGTAATTAA	1.01
TCATTGGCAG	1.03
CGATAAGGCA	1.02
TATCAGCCA	1.02
AAATCGTCA	1.01
AAATAATGAA	0.977
GGTTCGTCCC	0.989
GGGAGCCTGC	1.02
GGCGCTCATG	0.999
GCATGAAGGC	1.06
TTGTTCCAGT	0.99
TTGAGAAGGT	0.998
GCTGCAGGC	0.989
CGAAGACTAC	2.33
TGTCATTTGG	0.967
TAACCGGTGT	1.04
AGAAGAGGCG	0.944
ACGACGCGGT	1.02
CGGTGAAGAG	0.996
ACAATTGGCC	0.952
AGCTAGGAGT	0.978
TCAATTAGTA	0.99
TCTCATCACA	0.999

Sequence	switch fluorescence ratio
CACGGCTGCT	1.06
TTGTTTACCT	1.08
AAGGCACCTT	1.08
CCTGAATGCA	1.07
ACGCATGGAC	3.21
ATGGGAGGCC	0.937
ACAGGCCACG	1.02
TATAGTCTTG	1.01
AGTTTACCTG	1.04
TCAAGGTATG	1.02
GTTAGAGGAC	1.03
CTTGGGGTTT	0.981
TTAACATGCA	1.02
GTCGGGAGAG	1.01
TCTCCTCGTA	1.16
ACCGGCTTTT	1.08
TAGGTACATC	1.05
TAGGTCTTCT	1
TGTTATGACA	1.01
